Hit rate of the full screen: of about 3,200 compounds, about 75 (2%) showed an effect of 50% or more. This is one part of the list.
system: T1, S. aureus MSSA476; design: species or system S. aureus MSSA476 (TSB) or V. cholerae SAD30 (LB); 384-well bacterial growth screen at 25 uM, OD600 relative to DMSO control; conditions: relative growth, OD600, TSB; 25 µM; inhibitor
T1 construct: MSSA476

Compound | % of control remaining [%]
Cc1cccc(C)c1NC(=O)C(C#N)=Cc1ccc(C(=O)O)cc1 [9-G17, 4-{2-cyano-2-[(2,6-dimethylphenyl)carbamoyl]eth-1-en-1-yl}benzoic acid] | 122.547
C=CC(=O)NCc1nc2ccccc2s1 [1-I12, N-[(1,3-benzothiazol-2-yl)methyl]prop-2-enamide] | 122.374
CCCCNC(=O)C(C#N)=Cc1cc(C)c(O)c(C)c1 [9-E09, N-butyl-2-cyano-3-(4-hydroxy-3,5-dimethylphenyl)prop-2-enamide] | 106.966
O=C(CCl)c1ccc(F)c(F)c1 [10-L13, 2-chloro-1-(3,4-difluorophenyl)ethan-1-one] | 110.313
C=CC(=O)N1CCC(n2nc(C)nc2O)CC1 [3-P21, 1-[4-(5-hydroxy-3-methyl-1H-1,2,4-triazol-1-yl)piperidin-1-yl]prop-2-en-1-one] | 126.077
Cc1cccc(C)c1NC(=O)CNC(=O)C(C)Cl (centres unmarked) [6-F10, 2-chloro-N-{[(2,6-dimethylphenyl)carbamoyl]methyl}propanamide] | 107.22
O=C(CCl)NC(c1ccccc1)c1cccs1 (centres unmarked) [4-J14, 2-chloro-N-[phenyl(thiophen-2-yl)methyl]acetamide] | 106.717
CC(Cl)C(=O)NC1CS(=O)(=O)Cc2ccccc21 (centres unmarked) [6-L20, 2-chloro-N-(2,2-dioxo-3,4-dihydro-1H-2lambda6-benzothiopyran-4-yl)propanamide] | 96.9756
O=C(CCl)Nc1cc(C2CC2)nn1-c1ccccc1 [4-I15, 2-chloro-N-(3-cyclopropyl-1-phenyl-1H-pyrazol-5-yl)acetamide] | 91.8533
C=CC(=O)NCc1ccc2oc(=O)n(C)c2c1 [2-L15, N-[(3-methyl-2-oxo-2,3-dihydro-1,3-benzoxazol-5-yl)methyl]prop-2-enamide] | 113.838
CC(Cl)C(=O)N1CCCc2ccc(N(C)C)cc2C1 (centres unmarked) [7-C15, 2-chloro-1-[8-(dimethylamino)-2,3,4,5-tetrahydro-1H-2-benzazepin-2-yl]propan-1-one] | 97.3312
CCc1cccc(CC)c1NC(=O)CCl [4-F10, 2-chloro-N-(2,6-diethylphenyl)acetamide] | 109.004
CN(Cc1ccccc1)S(=O)(=O)c1ccc(NC(=O)CCl)cc1 [5-K08, N-{4-[benzyl(methyl)sulfamoyl]phenyl}-2-chloroacetamide] | 87.0674
Cc1cc(CNC(=O)CCl)[nH]n1 [7-L22, 2-chloro-N-[(3-methyl-1H-pyrazol-5-yl)methyl]acetamide] | 99.843
C=CC(=O)N1CCC(C(=O)N(C)Cc2cc(C(C)(C)C)[nH]n2)CC1 [2-F10, N-[(5-tert-butyl-1H-pyrazol-3-yl)methyl]-N-methyl-1-(prop-2-enoyl)piperidine-4-carboxamide] | 100.957
C=CC(=O)NC1CCN(Cc2ccccc2)C1 (centres unmarked) [1-N15, N-(1-benzylpyrrolidin-3-yl)prop-2-enamide] | 116.044
CCc1cccc(CC)c1NC(=O)C(C#N)=Cc1ccc(C#N)cc1 [9-O15, 2-cyano-3-(4-cyanophenyl)-N-(2,6-diethylphenyl)prop-2-enamide] | 88.3895
C=CC(=O)N1CCC[C@H]1C(=O)Nc1cccc(C)n1 [1-B10, (2S)-N-(6-methylpyridin-2-yl)-1-(prop-2-enoyl)pyrrolidine-2-carboxamide] | 113.231
CC(Cl)C(=O)NC1CCc2ccccc2-n2ccnc21 (centres unmarked) [7-E06, 2-chloro-N-{2,5-diazatricyclo[8.4.0.0,2,6]tetradeca-1(14),3,5,10,12-pentaen-7-yl}propanamide] | 97.6452
C=CC(=O)N1CCN(CC2CCOC2)CC1 (centres unmarked) [1-H18, 1-{4-[(oxolan-3-yl)methyl]piperazin-1-yl}prop-2-en-1-one] | 103.033
CC(Cl)C(=O)NCc1ccc(Cl)cc1 (centres unmarked) [6-I04, 2-chloro-N-[(4-chlorophenyl)methyl]propanamide] | 97.6585
C=CC(=O)NCc1ccc(C(=O)N2CCCC2C(=O)N(C)C)cc1 (centres unmarked) [2-D22, N,N-dimethyl-1-{4-[(prop-2-enamido)methyl]benzoyl}pyrrolidine-2-carboxamide] | 97.4761
CC(Cl)C(=O)N1CCCC1c1nc(-c2ccccc2)n[nH]1 (centres unmarked) [7-I09, 2-chloro-1-[2-(3-phenyl-1H-1,2,4-triazol-5-yl)pyrrolidin-1-yl]propan-1-one] | 101.099
CNc1ccc(C=C(C#N)C(=O)Nc2ccccc2F)cc1[N+](=O)[O-] [8-N09, 2-cyano-N-(2-fluorophenyl)-3-[4-(methylamino)-3-nitrophenyl]prop-2-enamide] | 106.224
CSc1ccc(C=C(C#N)C(=O)Nc2ccc(C(=O)O)cc2)cc1 [9-M08, 4-{2-cyano-3-[4-(methylsulfanyl)phenyl]prop-2-enamido}benzoic acid] | 103.97
COc1ccccc1NC(=O)C(C#N)=Cc1ccc(F)cc1 [8-E18, 2-cyano-3-(4-fluorophenyl)-N-(2-methoxyphenyl)prop-2-enamide] | 117.842
Cc1cccc(C)c1NC(=O)CCl [5-P20, 2-chloro-N-(2,6-dimethylphenyl)acetamide] | 101.639
C=CC(=O)NC1CCN(c2nnnn2C)CC1 [3-G06, N-[1-(1-methyl-1H-1,2,3,4-tetrazol-5-yl)piperidin-4-yl]prop-2-enamide] | 85.677
C=CC(=O)N1CCC(C(=O)NCC(C)(C)C2(O)CCCC2)CC1 [2-D14, N-[2-(1-hydroxycyclopentyl)-2-methylpropyl]-1-(prop-2-enoyl)piperidine-4-carboxamide] | 126.719

From paper PMC11995724, “Antibiotic target discovery by integrated phenotypic and activity-based profiling of electrophilic fragments” (Cell chemical biology, 2025)
